Consider 36 sequences from article PMC5892938.

The list shows a part of the results. At the low end of the ranking the order means little.

The assay concerns the target GST-SBP-SLBP (stem-loop binding protein) (UniProt Q14493). The experiment in a line: targeted RNA Bind-n-Seq.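 Also: DESeq read counts versus GST-SBP nonspecific binding control pulldown.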 To be noted: RBNS binding buffer: 25 mM Tris pH 7.5, 150 mM KCl, 3 mM MgCl2, 0.1% Tween, 0.5 mg/mL BSA, 1 mM DTT; 27 nM protein, 750 pM RNA pool; temperature not stated; high values mean tight binding.
Consider “GGUCACGUCUCAAUCAACUCAAUUUCAGGAGUUUACUCCUGCUUUUUCAACAGCUCGCAGUCAAG”, for which the binding signal (log2 fold change) was -0.13.
With “GGUCACGUCUCAAUCAACUCACAAGAGGGGGGGAAAACCCCUUUACCCUCAUUAUCAACAGCUCGCAGUCAAG”, the binding signal (log2 fold change) is -0.0578.
Consider “GGUCACGUCUCAAUCAACUCUAAAGAGGGGGGGAAAACCCCUUUACCCUCCGCAUCAACAGCUCGCAGUCAAG”, for which the binding signal (log2 fold change) is -0.13.
The result for “GGUCACGUCUCAAUCAACUCUAUCUCAGGAGUUUUCUCCUGCAUACUCAACAGCUCGCAGUCAAG” reads -0.0729.
With “GGUCACGUCUCAAUCAACUCAAUCCCCAGGGAAAACCCUGGCUAUUUCAACAGCUCGCAGUCAAG”, the binding signal (log2 fold change) came out at 0.338.
Turning to “GGUCACGUCUCAAUCAACUCUUCCUCCAGGGAAAGCCCUGGCUAUCUCAACAGCUCGCAGUCAAG”, the binding signal (log2 fold change) is -0.147.
With “GGUCACGUCUCAAUCAACUCAAUUCCAGGAGUUUACUCCUGCUUUCUCAACAGCUCGCAGUCAAG”, the binding signal (log2 fold change) was -0.152.
Consider “GGUCACGUCUCAAUCAACUCAUCGCCAGGAGUUUACUCCUGUUAUCUCAACAGCUCGCAGUCAAG”, for which the binding signal (log2 fold change) came to 0.0944.
Turning to “GGUCACGUCUCAAUCAACUCAAUAGAGGGGGGGAAAACCCCUUUACCCUCAUCAUCAACAGCUCGCAGUCAAG”, the binding signal (log2 fold change) worked out at 0.0863.
Take “GGUCACGUCUCAAUCAACUCAAACGAGGGGGGGAAAACCCCUUUACCCUCCACAUCAACAGCUCGCAGUCAAG”: the binding signal (log2 fold change) was -0.129.
For “GGUCACGUCUCAAUCAACUCUCACGAGGGGGGGAAAACCCCUUUACCCUCUUACUCAACAGCUCGCAGUCAAG” the value was 0.346.
On to “GGUCACGUCUCAAUCAACUCUUCCCCCAGGGAAAGCCCUGGCAAUUUCAACAGCUCGCAGUCAAG”, for which the binding signal (log2 fold change) came out at 0.0536.
As to “GGUCACGUCUCAAUCAACUCUAUCCCCAGGGAAAUCCCUGGCUUAUUCAACAGCUCGCAGUCAAG”, the binding signal (log2 fold change) is -0.323.
For “GGUCACGUCUCAAUCAACUCUUCGUCCAGGGAAACCCCUGGUUAUCUCAACAGCUCGCAGUCAAG” the value was -0.418; for “GGUCACGUCUCAAUCAACUCUUCAGAGGGGGGGAAAACCCCUUUGCCCUCAUAAUCAACAGCUCGCAGUCAAG”, -0.144.
“GGUCACGUCUCAAUCAACUCUAUCGAGGGGGGGAAAACCCCUUUACCCUCUUUUUCAACAGCUCGCAGUCAAG”: the binding signal (log2 fold change) is -0.0455.
For “GGUCACGUCUCAAUCAACUCCAACGAGGGGGGGAAAACCCCUUUACCCUCACCAUCAACAGCUCGCAGUCAAG”, the binding signal (log2 fold change) is -0.229.
For “GGUCACGUCUCAAUCAACUCAAUUUCAGGAGUUUCCUCCUGCUAUUUCAACAGCUCGCAGUCAAG” the value was 0.0302; for “GGUCACGUCUCAAUCAACUCAACUCCAGGAGUUUGCUCCUGUAUAUUCAACAGCUCGCAGUCAAG”, -0.0611.
As for “GGUCACGUCUCAAUCAACUCUCCCGAGGGGGGGAAAACCCCUUUACCCUCAACCUCAACAGCUCGCAGUCAAG”, the binding signal (log2 fold change) is -0.397.
“GGUCACGUCUCAAUCAACUCUAUCCCAGGAGUUUCCUCCUGUUUAUUCAACAGCUCGCAGUCAAG”: the binding signal (log2 fold change) is -0.0243.
Consider “GGUCACGUCUCAAUCAACUCAAUUUCAGGAGUUUACUCCUGCUUACUCAACAGCUCGCAGUCAAG”, for which the binding signal (log2 fold change) is -0.163.
Consider “GGUCACGUCUCAAUCAACUCAACUCCAGGAGUUUCCUCCUGCAUAUUCAACAGCUCGCAGUCAAG”, for which the binding signal (log2 fold change) was 0.166.
The result for “GGUCACGUCUCAAUCAACUCUUCUCCCAGGGAAAGCCCUGGCUUAUUCAACAGCUCGCAGUCAAG” reads -0.183.
As to “GGUCACGUCUCAAUCAACUCUUUCUCAGGAGUUUUCUCCUGUAAUUUCAACAGCUCGCAGUCAAG”, the binding signal (log2 fold change) was -0.152.
Regarding “GGUCACGUCUCAAUCAACUCAUCCUCAGGAGUUUACUCCUGCAAAUUCAACAGCUCGCAGUCAAG”, the binding signal (log2 fold change) was -0.17.
The result for “GGUCACGUCUCAAUCAACUCUUCGCCCAGGGAAAUCCCUGGUAAUUUCAACAGCUCGCAGUCAAG” reads 0.181.
Consider “GGUCACGUCUCAAUCAACUCAAUUUCAGGAGUUUCCUCCUGCUAACUCAACAGCUCGCAGUCAAG”, for which the binding signal (log2 fold change) was found to be 0.0742.
In the case of “GGUCACGUCUCAAUCAACUCUUCCCCCAGGGAAAGCCCUGGUUAUUUCAACAGCUCGCAGUCAAG”, the binding signal (log2 fold change) is -0.0402.
Consider “GGUCACGUCUCAAUCAACUCUAUGUCAGGAGUUUACUCCUGCUUUUUCAACAGCUCGCAGUCAAG”, for which the binding signal (log2 fold change) amounted to 0.151.
On to “GGUCACGUCUCAAUCAACUCAUUUUCAGGAGUUUCCUCCUGCUUAUUCAACAGCUCGCAGUCAAG”, for which the binding signal (log2 fold change) is -0.0374.
With “GGUCACGUCUCAAUCAACUCCAUAGAGGGGGGGAAAACCCCUUUACCCUCCUAAUCAACAGCUCGCAGUCAAG”, the binding signal (log2 fold change) amounted to 0.0187.
Consider “GGUCACGUCUCAAUCAACUCAUCUUCCAGGGAAACCCCUGGCAAACUCAACAGCUCGCAGUCAAG”, for which the binding signal (log2 fold change) is 0.173.
As for “GGUCACGUCUCAAUCAACUCUUCCCCAGGAGUUUCCUCCUGUUAUUUCAACAGCUCGCAGUCAAG”, the binding signal (log2 fold change) was -0.0522.
Consider “GGUCACGUCUCAAUCAACUCUAUCUCCAGGGAAAUCCCUGGCUAACUCAACAGCUCGCAGUCAAG”, for which the binding signal (log2 fold change) was -0.0434.
Turning to “GGUCACGUCUCAAUCAACUCAUUCCCCAGGGAAAUCCCUGGUUUAUUCAACAGCUCGCAGUCAAG”, the binding signal (log2 fold change) was -0.353.
